Among the data in PubChem BioAssay (NCI) are GI50 and TGI values, retold here.

Molecules are shown by their SMILES.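 Method: 48-hour compound exposure of cells in 96-well plates, five concentrations, linear interpolation of endpoints. GI50 is the concentration that inhibits growth by half. Definition used: TGI = concentration required for complete inhibition of growth.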

In this experiment the test system is NCI-H322M lung. Put plainly: NCI anticancer screen, dose series, 48 h.
Take `NC(=O)c1cc(-c2ccc3ncnc(N4CCc5cc(F)c(Cl)cc54)c3c2)cnc1N`: the GI50 was 1.02 µM and the TGI was determined as 8.69 µM.

Turning to `Oc1ccc(CSc2nnc(-c3ccc(Oc4ccccc4)cc3)n2-c2ccccc2)c2cccnc12`, the GI50 was 0.318 µM and the TGI is > 100 µM.

As for `CN(C)CCCNc1c2ccccc2nc2c1oc1ccc(Cl)cc12`, the GI50 is 3.18 µM and the TGI was 14.9 µM.
